{"source": "PubChem BioAssay AID2451", "about": "(National Center for Advancing Translational Sciences (NCATS), 2010)", "note": "Several values for one entry are separate records, joined by “and”; a condition that tells them apart may be missing. Equal values may be shown once. The campaign covered roughly 290,000 compounds. About 2,100 (0.72%) were called active. Inconclusive results, whose numbers are uncertain, are shown with a selection of clear calls. Calls follow the shape of the dose curve; as a rule, active = well fitted inhibition curve with a large enough effect; inconclusive = small, poorly fitted or top-dose-only effect, or effect the other way; inactive = flat fitted curve, though single readings scatter. Potencies of inconclusive entries are doubtful fits and often do not repeat. % is scaled to controls: 0 for no effect and ±100 for the full control effect; potency is read from the fitted curve at half-maximal effect; tags tell the direction and shape of the fitted curve."}
{"target": "Fructose-bisphosphate aldolase (Giardia intestinalis (strain ATCC 50803 / WB clone C6)) (UniProt A8B2U2)", "sequence (A8B2U2 whole entry, looked up)": "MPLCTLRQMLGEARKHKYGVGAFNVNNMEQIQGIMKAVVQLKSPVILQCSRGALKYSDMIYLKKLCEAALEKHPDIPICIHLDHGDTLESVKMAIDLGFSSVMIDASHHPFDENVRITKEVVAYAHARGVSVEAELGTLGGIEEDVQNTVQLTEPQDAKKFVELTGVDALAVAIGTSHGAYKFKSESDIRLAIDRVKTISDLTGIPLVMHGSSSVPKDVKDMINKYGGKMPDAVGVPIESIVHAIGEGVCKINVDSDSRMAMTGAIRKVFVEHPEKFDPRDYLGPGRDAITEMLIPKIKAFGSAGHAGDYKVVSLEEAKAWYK", "test": "qHTS Assay for Inhibitors of Fructose-1,6-bisphosphate Aldolase from Giardia Lamblia; also: nearly all actives have a fitted effect of over 55% in size", "conditions": "purified Giardia FBPA; activity, negative = inhibition: at 59.6 µM (top of the series) unless noted", "summary_of_the_method": "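40 nM FBPA preincubated 10 min at RT with compound (up to 57.5 uM final), then substrate plus GAPDH/TPI/NAD/arsenate coupling and diaphorase/resazurin added. Fluorescence read after 20 min at RT, 525/598 nm.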"}
{"smiles": "O=C(NC(=S)Nn1cnnc1)c1cccc(Br)c1", "Potency": "inconclusive: 6.29 µM [inhibitor, full curve]"}
{"smiles": "Cc1cc(C(=O)N/N=C/c2cc([N+](=O)[O-])cc(C)c2O)n[nH]1", "Potency": "inconclusive: 1.99 µM [inhibitor, partial curve, poor fit]"}
{"smiles": "O=C(CCC(=O)OCC(=O)c1ccccc1)Nc1cccc(Cl)c1", "activity, negative = inhibition": "inactive: 1.62%"}
{"smiles": "Cc1[nH]c2c(C)cccc2c1CCNC(=O)c1ccc2c(c1[N+](=O)[O-])C(=O)c1ccccc1C2=O", "Potency": "inconclusive: 1.77 µM [inhibitor, full curve]"}
{"smiles": "Cc1nc(-c2nc(-c3c(C(=O)NNC(=O)c4ccc(Cl)cc4)noc3C)cs2)cs1", "Potency": "inconclusive: 31.5 µM [inhibitor, single point]"}
{"smiles": "Cc1noc2c1C(c1ccc(N(C)C)cc1)C1=C(CC(C)(C)CC1=O)N2", "note": "(stereo not given)", "Potency": "inconclusive: 31.5 µM [inhibitor, single point]"}
{"smiles": "S=C(Nc1ccccc1)N1CCOCC1", "activity, negative = inhibition": "inactive: 0.349%"}
{"smiles": "COc1ccccc1CN1CCCCCC1", "Potency": "inconclusive: 14.1 µM [inhibitor, partial curve]"}
{"smiles": "CCOC(=O)c1ccc(NC(=O)c2cccc(S(=O)(=O)N3CCN(C(C)=O)CC3)c2)cc1", "activity, negative = inhibition": "inactive: 4.65%"}
{"smiles": "COc1ccccc1C1CCN(Cc2ccccc2)CC1", "Potency": "inconclusive: 31.6 µM [activator, partial curve]"}
{"smiles": "COc1cc(/C=N/n2c(-c3cc(C)[nH]n3)n[nH]c2=S)cc(OC)c1O", "Potency": "inconclusive: 17.7 µM [inhibitor, partial curve]"}
{"smiles": "Cc1ccc(OCCNC(=O)/C=C/c2ccco2)cc1C", "activity, negative = inhibition": "inactive: -9.81%"}
{"smiles": "CN(C)CCOCCOc1ccc(Cl)cc1C(C)(C)C", "Potency": "inconclusive: 14.1 µM [inhibitor, partial curve]"}
{"smiles": "CCOc1ccccc1Nc1nnc(C)c(=O)[nH]1", "activity, negative = inhibition": "inactive: -0.776%"}
{"smiles": "COc1ccc(C(=O)Nc2ccc(C(=O)N3CCC(C)CC3)cc2)cc1OC", "activity, negative = inhibition": "inactive: 10%"}
{"smiles": "O=C(CSc1ccc(-c2ccccn2)nn1)c1ccccc1", "Potency": "inconclusive: 15.8 µM [inhibitor, partial curve]"}
{"smiles": "O=C1C=C(N2CCOCC2)c2ccccc2C1=O", "Potency": "inconclusive: 0.316 µM [inhibitor, full curve]"}
{"smiles": "OC(COC(c1ccc(F)cc1)c1ccc(F)cc1)CN1CCCC(C(F)(F)F)C1", "note": "(stereo not given)", "Potency": "active: 14.1 µM"}
{"smiles": "O=C(O)c1cc(-n2nnnc2SCc2ccccc2F)ccc1Cl", "Potency": "inconclusive: 17.7 µM [activator, single point]"}
{"smiles": "CC(C)(C)NC(=O)Cc1ccc(S(=O)(=O)N2CCCC2)s1", "Potency": "inconclusive: 14.1 µM [inhibitor, partial curve, poor fit]"}
{"smiles": "CCS(=O)(=O)N1CCN(Cc2ccncc2)CC1", "Potency": "active: 14.1 µM"}
{"smiles": "COc1ccc(-c2cn[nH]c2-c2ccc(OCc3ccc([N+](=O)[O-])cc3)cc2O)cc1", "activity, negative = inhibition": "inactive: 3.32%"}
{"smiles": "CCc1nc(SCC(=O)Nc2cccc3ccccc23)[nH]c(=O)c1C", "activity, negative = inhibition": "inactive: -24.9%"}
{"smiles": "O=C(N/N=C\\c1ccc([N+](=O)[O-])o1)c1cncc(Br)c1", "Potency": "inconclusive: 7.06 µM [inhibitor, partial curve]"}
{"smiles": "Cc1ccc(S(=O)(=O)N2CCOCC2)cc1NC(=O)COC(=O)CSc1ccc(Br)cc1C", "activity, negative = inhibition": "inactive: -0.997%"}
{"smiles": "C=CCN=C1N[C@@H](c2ccccc2)C(C(=O)OC)=C(C)N1CCOC", "Potency": "inconclusive: 28.2 µM [inhibitor, partial curve]"}
{"smiles": "CCOc1ccc(C(=O)NC2CCN(C(=S)Nc3ccccc3C)CC2)cc1", "activity, negative = inhibition": "inactive: 1.13%"}
{"smiles": "COc1ccc(NS(=O)(=O)c2ccc3c(c2)Cc2ccccc2-3)cn1", "activity, negative = inhibition": "inactive: -18.7%"}
{"smiles": "Cc1ccc(C)n1-c1cccc(N)c1", "Potency": "inconclusive: 9.98 µM [inhibitor, partial curve]"}
{"smiles": "Cc1cc(C)nc(Nc2ccc(C(=O)O)cc2)n1", "activity, negative = inhibition": "inactive: -0.872%"}
{"smiles": "CCNS(=O)(=O)c1ccc(CCC(=O)N2CCN(c3cccc(Cl)c3)CC2)cc1", "activity, negative = inhibition": "inactive: 12.2%"}
{"smiles": "CCc1ccc(OCCOCCN2CCN(C)CC2)cc1", "Potency": "inconclusive: 20 µM [inhibitor, partial curve]"}
{"smiles": "C1=CC2c3ccccc3NC(c3ccncc3)C2C1", "note": "(stereo not given)", "Potency": "inconclusive: 3.15 µM [inhibitor, full curve]"}
{"smiles": "O=C(Cc1nn[nH]n1)c1ccccc1O", "Potency": "inconclusive: 5 µM [inhibitor, full curve]"}
{"smiles": "CC(C)=CCC1=C(O)c2ccccc2C(=O)C1=O", "Potency": "active: 1.77 µM and active: 1.12 µM"}
{"smiles": "CCOc1ccc(NS(=O)(=O)c2ccc(-c3coc(C)n3)cc2)cc1", "activity, negative = inhibition": "inconclusive: 51.8% [activator]"}
{"smiles": "COc1ccccc1CNCC(=O)NCc1ccc(C)cc1", "Potency": "inconclusive: 4.46 µM [inhibitor, single point]"}
{"smiles": "CC(/C=N/n1c(-c2n[nH]c3c2CCC3)n[nH]c1=S)=C\\c1ccco1", "Potency": "inconclusive: 31.5 µM [inhibitor, single point]"}
{"smiles": "COc1cccc(N=Nc2ccc3cccnc3c2O)c1", "Potency": "inconclusive: 39.8 µM [inhibitor, single point]"}
{"smiles": "Cc1ccc(-c2cn3cc(C)ccc3n2)cc1", "Potency": "inconclusive: 5 µM [inhibitor, full curve]"}
{"smiles": "CCOc1cc(NC(=O)c2ccccc2C(=O)O)c(OCC)cc1NC(=O)c1ccccc1F", "Potency": "inconclusive: 22.4 µM [inhibitor, partial curve]"}
{"smiles": "O=C(Nc1nnc(C2=COCCO2)o1)c1ccc([N+](=O)[O-])s1", "Potency": "inconclusive: 35.5 µM [inhibitor, single point]"}
{"smiles": "COc1ccc(/C=C/C(=O)NC(=S)Nc2ccc(S(=O)(=O)Nc3cc(C)on3)cc2)cc1", "Potency": "inconclusive: 31.6 µM [inhibitor, partial curve]"}
{"smiles": "COC/C=C/C1=CC2=CC(=O)C(C)(OC(=O)c3cnc4ccccc4n3)C(=O)C2=CN1CCCOC(C)C", "note": "(stereo not given)", "Potency": "inconclusive: 3.97 µM [inhibitor, partial curve] and inconclusive: 1.58 µM [inhibitor, full curve]"}
{"smiles": "O=C1NCCN(Cc2ccc(Cl)c(F)c2)C1CC(=O)N1CCCCO1", "note": "(stereo not given)", "Potency": "inconclusive: 14.1 µM [inhibitor, partial curve]"}
{"smiles": "N#Cc1ccccc1OCCCN1CCC(Cc2ccccc2)CC1", "Potency": "inconclusive: 22.4 µM [inhibitor, partial curve]"}
{"smiles": "COc1ccc(C(=O)NC23CC4CC(CC(C4)C2)C3)cc1", "activity, negative = inhibition": "inactive: -4.83%"}
{"smiles": "CCOc1cc(C(=S)N2CCCC2)ccc1OCC(=O)Nc1c(C)cc(C)cc1C", "activity, negative = inhibition": "inactive: -3.22%"}
{"smiles": "Cc1cc(OCCN2CCOCC2)ccc1Cl", "Potency": "inconclusive: 35.5 µM [inhibitor, single point]"}
{"smiles": "CCCOc1ccc(Cn2cnc3ccccc32)cc1", "activity, negative = inhibition": "inactive: 4.76%"}
{"smiles": "Cc1ccc2c(c1)CC1(CN2C)C(=O)NC(=O)N(C(C)C)C1=O", "note": "(stereo not given)", "Potency": "inconclusive: 15.8 µM [inhibitor, single point]"}
{"smiles": "COCCN(C)Cc1nc(C(c2ccccc2)c2ccccc2)no1", "activity, negative = inhibition": "inactive: -5.73%"}
{"smiles": "COC(=O)CCC(=O)OC1(C)C(=O)C=C2C=C(C3CC3)N(C3CCCCC3)C=C2C1=O", "note": "(stereo not given)", "Potency": "inconclusive: 177 nM [inhibitor, full curve] and inconclusive: 561 nM [inhibitor, full curve]"}
{"smiles": "CCc1ccc2c(O)c3c(cc2c1C(=O)OC)C(=O)c1c(O)ccc(O)c1C3=O", "Potency": "inconclusive: 2.81 µM [inhibitor, full curve]"}
{"smiles": "Cc1cccn2c(=O)c3cc(C(N)=S)c(=N)n(CCCN4CCOCC4)c3nc12", "Potency": "inconclusive: 19.9 µM [inhibitor, single point]"}
{"smiles": "Cc1cccc(OCCN2CCOCC2)c1C", "Potency": "inconclusive: 25.1 µM [inhibitor, partial curve]"}
{"smiles": "CC1Cc2cccc3c(O)c(C(=O)c4nn[nH]n4)c(=O)n1c23", "note": "(stereo not given)", "Potency": "inconclusive: 5 µM [inhibitor, partial curve]"}
{"smiles": "C/C(=N\\OCC(=O)N/N=C/c1ccccc1O)c1cccs1", "Potency": "inconclusive: 3.97 µM [inhibitor, full curve]"}
{"smiles": "COc1ccccc1N1CCN(C(C)C(=O)N2CC(C)OC(C)C2)CC1", "note": "(stereo not given)", "Potency": "active: 5.61 µM"}
{"smiles": "COc1cc(/C=N/n2c(-c3ccccc3)n[nH]c2=S)ccc1O", "Potency": "inconclusive: 31.5 µM [inhibitor, single point]"}
{"smiles": "CCCCN(C(=S)Nc1cccc(SC)c1)C1CCN(C(C)=O)CC1", "Potency": "inconclusive: 17.7 µM [inhibitor, single point]"}
{"smiles": "CCOC(=O)C1=C(C)OC(N)=C(C#N)C1c1c(C)nn(-c2ccccc2)c1Cl", "note": "(stereo not given)", "Potency": "inconclusive: 14.1 µM [inhibitor, partial curve]"}
{"smiles": "Cc1cc(C(C)(C)C)cc(S(=O)(=O)Nc2ccc(C(=O)O)cc2)c1C", "Potency": "inconclusive: 15.8 µM [activator, single point]"}
{"smiles": "CCCOc1ccc(C(=O)NNC(=S)NC(=O)c2ccccc2)cc1", "Potency": "inconclusive: 15.8 µM [activator, partial curve]"}
{"smiles": "O=C(Nc1ccc(N2CCOCC2)cc1)Nc1ccc2nc(-c3ccco3)c(-c3ccco3)nc2c1", "Potency": "inconclusive: 9.98 µM [inhibitor, partial curve, poor fit]"}
{"smiles": "CCOC(=O)c1cnc(-c2cccc(OC)c2)[nH]c1=O", "Potency": "inconclusive: 22.4 µM [inhibitor, partial curve]"}
{"smiles": "COC1=C/C(=C/c2c(N)n3nc(CC(=O)N4CCCCC4)sc3nc2=O)C=CC1=O", "Potency": "inconclusive: 22.4 µM [inhibitor, partial curve]"}
{"smiles": "Cc1ccc(Cc2cnc(N3C(=N)SC(C)C3=O)s2)cc1", "note": "(stereo not given)", "Potency": "inconclusive: 12.6 µM [inhibitor, partial curve]"}
{"smiles": "O=C1C(NS(=O)(=O)c2cccs2)=C(N2CCN(c3cccc(Cl)c3)CC2)C(=O)c2ccccc21", "Potency": "inconclusive: 5 µM [inhibitor, partial curve]"}
{"smiles": "Nc1ncnc2oc(-c3ccco3)c(-c3ccco3)c12", "Potency": "inconclusive: 14.1 µM [inhibitor, partial curve]"}
